The list shows a part of the results.

In this test the target is T1, OsWOX13 (Oryza sativa, UniProt Q5QMM3 1-267).
T1 sequence: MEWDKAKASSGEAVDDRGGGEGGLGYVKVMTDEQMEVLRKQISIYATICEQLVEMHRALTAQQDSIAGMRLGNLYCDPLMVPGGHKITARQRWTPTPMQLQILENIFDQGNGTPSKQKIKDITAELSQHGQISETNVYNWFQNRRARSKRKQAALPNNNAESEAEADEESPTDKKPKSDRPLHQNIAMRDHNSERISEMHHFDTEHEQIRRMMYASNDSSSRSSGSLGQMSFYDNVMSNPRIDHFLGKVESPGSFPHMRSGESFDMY
Put plainly: protein-binding microarray (RPBM); PBS, 2% BSA, 51.3 ng/ul salmon testes DNA, 50 uM zinc acetate, 200 nM TF, 25 C, 1 h; high values mean tight binding. The note with it: protein: recombinant; tags: N-terminal polyhistidine and DsRed monomer fusion (pET32a); label: CyDye5-dUTP incorporated in the synthesized complementary strand; 3' TTTTT single-stranded linker to array surface; dsDNA, one strand shown. The gist of the method:
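Transcription factors were each fused at the N-terminus to a polyhistidine tag plus DsRed and expressed in E. coli BL21-CodonPlus before Ni–NTA purification. Binding to a double-stranded custom Agilent array was carried out with 200 nM protein at 25 °C for 1 h in PBS, 2% BSA, salmon testes DNA and 50 µM zinc acetate. The binding signal is per-feature fluorescence intensity, in arbitrary units, on an Axon 4000B scanner.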
With “TCAACAATCAAGAAAATGGCACCAGCAATTGAAAGAAGTGCGGAGTCACCTAGTGCAG”, the binding signal was 4470 fluorescence intensity (a.u.). Consider “CATTCAAATTTCAATCAAACTTACAATTTTGACGTGAACTCGGAGTCACCTAGTGCAG”, for which the binding signal was 29600 fluorescence intensity (a.u.). Then “TTTCAATTTCAATCAAACATTCAATTTTAGCGTGAACTAACGGAGTCACCTAGTGCAG”, with 14000 fluorescence intensity (a.u.); and “TTTCATTTATTCATTGTGCTAATTAGCGGTCAAAATTGGTCGGAGTCACCTAGTGCAG”, with 11400 fluorescence intensity (a.u.); and “TATATGTTAATGAATCTTGACACATATATAATAAACCGTGCGGAGTCACCTAGTGCAG”, with 3290 fluorescence intensity (a.u.). For the sequence “TGGATTGGATTAGATAATTTCTCCAACTCAGCGTCACAAACGGAGTCACCTAGTGCAG”, the binding signal is 17700 fluorescence intensity (a.u.). Next, “GTAATTGAGACCCCGCCTCCATCAAACACAGCACATACGCCGGAGTCACCTAGTGCAG”: 7310 fluorescence intensity (a.u.); “GCCCGACTTACTATAACATTGATTGTTATGTCACTTGTCTCGGAGTCACCTAGTGCAG”: 9290 fluorescence intensity (a.u.).

Take “TTCTTTCATCAATTACTAGGCCTAGATGGGTAATTTTGGTCGGAGTCACCTAGTGCAG”: the binding signal is 14300 fluorescence intensity (a.u.). Next, “ATTCAATCAATTATATATATATATATATATATATATATATCGGAGTCACCTAGTGCAG”: 7480 fluorescence intensity (a.u.); “TAAACTTATTCCGAGTATTGATTGCCACATTAAGCCTGCCCGGAGTCACCTAGTGCAG”: 12500 fluorescence intensity (a.u.). Turning to “CCAAATTAATCATATTGAACAGTAGAGAAATCACCTTTGTCGGAGTCACCTAGTGCAG”, the binding signal was 14000 fluorescence intensity (a.u.). Then “TCAGGAAAATTGATGCATCATTGTACTCGCTAATCCTTGCCGGAGTCACCTAGTGCAG”, with 12100 fluorescence intensity (a.u.); and “CCTAATTAATCCGTCATTAGCAAATGTTTATTGTAGCACCCGGAGTCACCTAGTGCAG”, with 41300 fluorescence intensity (a.u.); and “TGAGTAGATGATTATAAATCACGTTGATCTTGCTGAAATTCGGAGTCACCTAGTGCAG”, with 9020 fluorescence intensity (a.u.). In the case of “ACTCAAATTGTTCTGGAAATGATTTATGTTCTTTTATCTGCGGAGTCACCTAGTGCAG”, the binding signal is 11300 fluorescence intensity (a.u.). Next, “GAAACAGATTATTGAGCGAATTGTTTCTATAGATTATCTACGGAGTCACCTAGTGCAG”: 5530 fluorescence intensity (a.u.). Then “AATCTAAATTGAATATATTTTGATAATATGTTTGTTTTGTCGGAGTCACCTAGTGCAG”, with 20000 fluorescence intensity (a.u.). Turning to “GTGTGTCCCTTTAGCTTAATTTGCAGCTAATTCAATCTCACGGAGTCACCTAGTGCAG”, the binding signal was 4870 fluorescence intensity (a.u.).

For the sequence “TAAACAAGCCCTTTAATTAATTAACTATCTTGGCAACTCCCGGAGTCACCTAGTGCAG”, the binding signal was 13500 fluorescence intensity (a.u.). Next, “CAGTAATTTACGTTTAATACTCTTAAATAACGAGATTCCGCGGAGTCACCTAGTGCAG”: 9250 fluorescence intensity (a.u.); “GGTGATCGATAATTCCCGAGATGTTGTAAGACGACACATACGGAGTCACCTAGTGCAG”: 4320 fluorescence intensity (a.u.); “ATCGATCGTAATTACGTTAGGGCAAATTCTAGTCATCTATCGGAGTCACCTAGTGCAG”: 9480 fluorescence intensity (a.u.).
